{
  "sequences": {"note": "Sequences of proteins named here, by UniProt entry; tags and fusion partners are left off.", "UniProt Q8N3F8": "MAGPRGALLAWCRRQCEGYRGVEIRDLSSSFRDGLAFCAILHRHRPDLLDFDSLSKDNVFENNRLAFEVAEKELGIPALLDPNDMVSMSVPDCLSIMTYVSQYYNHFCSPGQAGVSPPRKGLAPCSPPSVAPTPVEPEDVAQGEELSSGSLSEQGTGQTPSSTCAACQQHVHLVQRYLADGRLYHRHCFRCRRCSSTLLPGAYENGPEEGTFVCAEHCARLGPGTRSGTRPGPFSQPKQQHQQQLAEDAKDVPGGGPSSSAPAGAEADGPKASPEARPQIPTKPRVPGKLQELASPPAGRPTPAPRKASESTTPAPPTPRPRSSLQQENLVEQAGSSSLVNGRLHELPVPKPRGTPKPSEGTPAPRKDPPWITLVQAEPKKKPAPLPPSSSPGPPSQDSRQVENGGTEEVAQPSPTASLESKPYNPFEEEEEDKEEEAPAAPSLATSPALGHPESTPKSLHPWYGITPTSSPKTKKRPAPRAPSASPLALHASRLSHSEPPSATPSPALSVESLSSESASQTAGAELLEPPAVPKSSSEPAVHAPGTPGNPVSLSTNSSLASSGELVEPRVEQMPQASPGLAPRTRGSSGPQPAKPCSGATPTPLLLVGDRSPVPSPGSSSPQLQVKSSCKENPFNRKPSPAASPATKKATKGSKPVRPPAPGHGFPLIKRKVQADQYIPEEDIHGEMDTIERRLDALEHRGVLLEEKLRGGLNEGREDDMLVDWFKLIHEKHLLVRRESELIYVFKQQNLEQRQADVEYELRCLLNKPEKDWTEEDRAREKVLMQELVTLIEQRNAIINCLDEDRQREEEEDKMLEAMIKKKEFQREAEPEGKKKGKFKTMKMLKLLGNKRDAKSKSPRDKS", "UniProt Q9UNF0": "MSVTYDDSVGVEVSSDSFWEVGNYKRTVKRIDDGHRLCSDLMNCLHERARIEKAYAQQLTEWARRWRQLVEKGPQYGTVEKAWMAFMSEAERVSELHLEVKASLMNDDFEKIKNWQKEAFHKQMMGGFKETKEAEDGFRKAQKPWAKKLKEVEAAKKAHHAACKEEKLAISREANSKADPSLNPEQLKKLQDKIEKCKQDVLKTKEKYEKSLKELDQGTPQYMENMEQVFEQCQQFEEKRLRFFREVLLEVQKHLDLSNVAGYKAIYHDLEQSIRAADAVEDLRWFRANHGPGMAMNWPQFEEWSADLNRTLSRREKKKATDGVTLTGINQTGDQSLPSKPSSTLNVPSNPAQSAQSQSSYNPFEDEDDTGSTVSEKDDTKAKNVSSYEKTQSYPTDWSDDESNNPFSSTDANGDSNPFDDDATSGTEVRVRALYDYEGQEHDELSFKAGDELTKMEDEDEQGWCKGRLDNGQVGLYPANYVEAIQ"},
  "source": "paper PMC7511005",
  "binders": {"B1": {"name": "EHD4, yeast two-hybrid fusion (protein, UniProt Q9H223 1-541)", "chain": "MFSWMGRQAGGRERAGGADAVQTVTGGLRSLYLRKVLPLEEAYRFHEFHSPALEDADFENKPMILLVGQYSTGKTTFIRYLLEQDFPGMRIGPEPTTDSFIAVMYGETEGSTPGNALVVDPKKPFRKLSRFGNAFLNRFMCSQLPNQVLKSISVIDSPGILSGEKQRISRGYDFCQVLQWFAERVDRIILLFDAHKLDISDEFSEAIKAFRGQDDKIRVVLNKADQVDTQQLMRVYGALMWSLGKVINTPEVLRVYIGSFWAQPLQNTDNRRLFEAEAQDLFRDIQSLPQKAAVRKLNDLIKRARLAKVHAYIISYLKKEMPSVFGKENKKRELISRLPEIYIQLQREYQISAGDFPEVKAMQEQLENYDFTKFHSLKPKLIEAVDNMLSNKISPLMNLISQEETSTPTQLVQGGAFDGTTEGPFNQGYGEGAKEGADEEEWVVAKDKPVYDELFYTLSPINGKISGVNAKKEMVTSKLPNSVLGKIWKLADCDCDGMLDEEEFALAKHLIKIKLDGYELPSSLPPHLVPPSHRKSLPKAD"}},
  "experiment_in_all_cases": "two-hybrid; AH109 yeast co-transformed with pGADT7 and pGBKT7 fusions; growth on -His plates, 30°C, 72 h",
  "key": {"[1]": {"target": "MICAL-L1, yeast two-hybrid fusion (UniProt Q8N3F8)"}, "[2]": {"target": "T1, EHD1 aa1-199, yeast two-hybrid fusion (UniProt Q9H4M9)", "T1 sequence": "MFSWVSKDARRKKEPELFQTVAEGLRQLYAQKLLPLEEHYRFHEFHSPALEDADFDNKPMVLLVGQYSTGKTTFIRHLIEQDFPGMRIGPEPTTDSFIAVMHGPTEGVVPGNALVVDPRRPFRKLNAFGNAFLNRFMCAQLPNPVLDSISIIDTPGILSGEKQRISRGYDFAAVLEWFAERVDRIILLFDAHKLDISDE"}, "[3]": {"target": "EHD4, yeast two-hybrid fusion (UniProt Q9H223)"}, "[4]": {"target": "Syndapin2, yeast two-hybrid fusion (UniProt Q9UNF0)"}, "[5]": {"target": "T2, EHD1 aa1-439, yeast two-hybrid fusion (UniProt Q9H4M9)", "T2 sequence": "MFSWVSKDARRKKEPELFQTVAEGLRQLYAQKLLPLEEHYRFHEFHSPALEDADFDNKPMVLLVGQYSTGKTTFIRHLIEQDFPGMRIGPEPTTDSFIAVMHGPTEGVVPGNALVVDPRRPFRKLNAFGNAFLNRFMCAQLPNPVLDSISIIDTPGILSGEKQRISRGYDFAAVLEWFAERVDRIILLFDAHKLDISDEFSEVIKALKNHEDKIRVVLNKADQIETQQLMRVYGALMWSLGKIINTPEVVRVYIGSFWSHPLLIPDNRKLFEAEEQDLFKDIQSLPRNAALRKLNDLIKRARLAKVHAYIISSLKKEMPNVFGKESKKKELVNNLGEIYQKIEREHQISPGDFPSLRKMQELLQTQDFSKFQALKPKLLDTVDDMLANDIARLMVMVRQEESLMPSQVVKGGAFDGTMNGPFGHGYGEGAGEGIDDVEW"}, "[6]": {"target": "T3, EHD1 aa1-309, yeast two-hybrid fusion (UniProt Q9H4M9)", "T3 sequence": "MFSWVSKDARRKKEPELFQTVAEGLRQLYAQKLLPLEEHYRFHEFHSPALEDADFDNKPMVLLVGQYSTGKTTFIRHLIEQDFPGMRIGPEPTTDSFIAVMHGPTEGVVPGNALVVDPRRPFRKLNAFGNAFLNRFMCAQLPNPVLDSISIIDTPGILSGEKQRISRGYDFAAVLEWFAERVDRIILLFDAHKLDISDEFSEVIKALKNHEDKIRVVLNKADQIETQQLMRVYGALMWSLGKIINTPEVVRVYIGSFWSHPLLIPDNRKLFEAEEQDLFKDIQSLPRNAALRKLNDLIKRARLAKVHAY"}, "[7]": {"target": "T4, EHD1, yeast two-hybrid fusion (UniProt Q9H4M9)", "T4 sequence": "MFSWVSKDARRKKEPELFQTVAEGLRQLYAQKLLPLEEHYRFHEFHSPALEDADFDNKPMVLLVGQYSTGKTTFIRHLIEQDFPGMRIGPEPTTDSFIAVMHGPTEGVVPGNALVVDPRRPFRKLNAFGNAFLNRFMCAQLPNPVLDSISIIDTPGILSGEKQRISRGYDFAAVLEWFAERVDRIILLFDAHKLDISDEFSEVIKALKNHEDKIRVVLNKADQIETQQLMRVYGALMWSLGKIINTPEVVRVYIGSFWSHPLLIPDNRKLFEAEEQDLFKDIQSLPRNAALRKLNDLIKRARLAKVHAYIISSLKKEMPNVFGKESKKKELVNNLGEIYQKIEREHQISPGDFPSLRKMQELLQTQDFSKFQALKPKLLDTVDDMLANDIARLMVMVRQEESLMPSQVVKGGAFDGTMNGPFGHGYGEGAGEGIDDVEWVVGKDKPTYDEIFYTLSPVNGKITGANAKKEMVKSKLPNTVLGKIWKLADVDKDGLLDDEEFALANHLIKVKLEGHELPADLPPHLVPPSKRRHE"}, "[8]": {"target": "T5, EHD3, yeast two-hybrid fusion (UniProt Q9NZN3)", "T5 sequence": "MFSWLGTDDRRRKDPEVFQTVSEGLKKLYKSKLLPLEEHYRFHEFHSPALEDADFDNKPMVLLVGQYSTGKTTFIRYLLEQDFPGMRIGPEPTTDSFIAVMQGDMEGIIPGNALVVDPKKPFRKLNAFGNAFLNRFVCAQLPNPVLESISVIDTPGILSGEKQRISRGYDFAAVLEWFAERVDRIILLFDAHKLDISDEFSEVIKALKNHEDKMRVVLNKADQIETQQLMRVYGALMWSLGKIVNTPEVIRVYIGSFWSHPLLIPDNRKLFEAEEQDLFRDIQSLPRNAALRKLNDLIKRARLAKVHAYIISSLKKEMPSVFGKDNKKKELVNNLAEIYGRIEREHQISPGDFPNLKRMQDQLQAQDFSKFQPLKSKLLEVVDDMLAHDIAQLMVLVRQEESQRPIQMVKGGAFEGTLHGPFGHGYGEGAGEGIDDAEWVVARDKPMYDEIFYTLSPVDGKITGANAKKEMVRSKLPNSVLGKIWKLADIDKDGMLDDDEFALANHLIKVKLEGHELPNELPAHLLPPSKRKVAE"}},
  "note": "These are yes or no findings as the source states them, for the method shown. Some entries that bind do so weakly or less than the wild type. Where a sequence is shown, tags or fusion partners need not be part of it.",
  "data": [
    {"binder": "B1", "values": [
      {"measurement": "binding", "setting": "[1]", "value": "no binding"},
      {"measurement": "binding", "setting": "[2]", "value": "no binding"},
      {"measurement": "binding", "setting": "[3]", "value": "binds weakly"},
      {"measurement": "binding", "setting": "[4]", "value": "binds"},
      {"measurement": "binding", "setting": "[5]", "value": "binds"},
      {"measurement": "binding", "setting": "[6]", "value": "no binding"},
      {"measurement": "binding", "setting": "[7]", "value": "binds"},
      {"measurement": "binding", "setting": "[8]", "value": "binds"}
    ]}
  ]
}
